Reference: PubChem BioAssay AID485273 (Sanford-Burnham Center for Chemical Genomics, 2010)
In all, about 330,000 compounds went through this assay and about 1,500 (0.45%) were called active. This list was built around the results that the source calls inconclusive (neither active nor inactive); the mix of calls is not that of the screen. No stated cut-off is given here; in the data, active means inhibition above about 45% (passing the limit was not always enough); inconclusive means no clear call, values can overlap the other calls.

Target: Ubiquitin-conjugating enzyme E2 N (Homo sapiens) (UniProt P61088)
Sequence of UniProt P61088 (P61088 whole entry, looked up): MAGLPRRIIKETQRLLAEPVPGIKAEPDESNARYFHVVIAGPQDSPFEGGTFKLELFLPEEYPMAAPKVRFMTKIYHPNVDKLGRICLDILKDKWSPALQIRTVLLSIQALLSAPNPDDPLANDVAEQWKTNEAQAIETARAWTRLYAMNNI
Assay: UBC13 polyubiquitin chain formation inhibitors, primary screen, biochemical, TR-FRET, uHTS (AID 485273)
Details: at 20 µM, stronger effect = higher value

SMILES | inhibition
Cc1ccc(NC(=O)CSc2nc3ccccc3c(=O)n2CCCC(=O)NCCCN2CCOCC2)cc1C | active: 47.9%
Cc1ccnc(NC(=O)c2ccc(C(=O)c3ccccc3)cc2)c1 | inactive: 14.5%
C#CCOCCOCCOCCNc1nc(N2CCN(C(=O)CCCCCCCCCCNC(=O)[C@@H](CCSC)n3cc(CCO)nn3)CC2)nc(N2CCN(C(=O)CCCCCCCCCCNC(=O)[C@H](CO)n3cc(CCCCCN)nn3)CC2)n1 | active: 118%
COCC(C)NC(=O)/C=C/c1ccc(OC)cc1 (stereo unspecified) | inconclusive: 85.2%
Cc1nn(-c2ccccc2)c2nc(Cl)c(C(=O)O)cc12 | inactive: 12.7%
CNC[C@H]1Oc2ccc(NC(=O)Nc3ccc(OC)cc3)cc2C(=O)N([C@@H](C)CO)C[C@H]1C | active: 48.2%
CCOc1ccc(C2C=C(c3ccccc3)Nc3ncnn32)cc1 (stereo unspecified) | inactive: 14.2%
COc1cc(/C=C(\C#N)c2nc3ccccc3s2)cc([N+](=O)[O-])c1O | inactive: -221%
COC(=O)C1(CCSC)NC(c2ccccc2F)C2C(=O)N(c3ccc4c(c3)OCCO4)C(=O)C21 (stereo unspecified) | inactive: -12.4%
O=C(NCCCCCCNC(=O)c1ccccc1O)c1ccccc1O | inconclusive: 65.4%
COc1cccc2sc3cc(NCc4ccc(C)o4)ccc3c(=O)c12 | inconclusive: 56.1%
O=C(NCc1ccccc1)c1onc(CSc2ccncc2)c1C(=O)NCc1ccccc1 | inconclusive: 67.5%
CCC(C(=O)NC1CCCC1)N(C(=O)c1snc(C(N)=O)c1N)c1ccc(OC)cc1 (stereo unspecified) | active: 52.2%
CC(C)n1cnc2c(Nc3ccc(C(=O)O)cc3)nc(Cl)nc21 | inactive: 9.4%
CSc1ncccc1C(=O)OCC(=O)N(C)c1c(N)n(Cc2ccccc2)c(=O)[nH]c1=O | inactive: 0.8%
O=C(O)c1cc(O)c2c(c1)[C@@H]([C@H]1c3cc(C(=O)O)cc(O)c3C(=O)c3c(O[C@@H]4O[C@H](CO)[C@@H](O)[C@H](O)[C@H]4O)cccc31)c1cccc(O[C@@H]3O[C@H](CO)[C@@H](O)[C@H](O)[C@H]3O)c1C2=O | inconclusive: 125%
CCCCNC(=O)CSc1nc(Cc2ccccc2)nc2ccccc12 | inconclusive: 46.7%
Cc1ccc(-c2nnc(Nc3ccc(C(=O)N(C)C)cc3)c3ccccc23)cc1S(=O)(=O)NCC1CCCO1 (stereo unspecified) | inactive: -3.8%
Cc1cccc(Nc2nnc(SCC(=O)NCc3cccs3)s2)c1C | inconclusive: 88.6%
O=C(O)c1cc([N+](=O)[O-])ccc1C(=O)Nc1cccc([N+](=O)[O-])c1 | inconclusive: 76.7%
O=C(NCc1ccco1)C1CC2CCC1C2 (stereo unspecified) | inconclusive: 88.6%
CC(C)C(=O)Nc1c(C(=O)c2ccc(F)cc2)oc2ccccc12 | inconclusive: 79%

SMILES | inhibition
CC1CCc2cc(F)cc3c(O)c(C(=O)NCC4CCCO4)c(=O)n1c23 (stereo unspecified) | inconclusive: 67.5%
S=C(NC1CCCC1)N1CCN(c2ncccn2)CC1 | inconclusive: 80.9%
COc1ccc(CNc2ncc(-c3cccc([N+](=O)[O-])c3)n2C)c(OC)c1OC | inconclusive: 86.4%
COC(=O)c1c(-c2ccccc2OC)sc2cc3c(cc12)OCO3 | inconclusive: 49.1%
CN1CCN(CCc2nc3cc(NC(=O)COc4ccccc4)ccc3n2C)CC1 | inactive: 9%
Nc1ccc2c(c1)C(=O)Cc1ccccc1S2 | active: 57.5%
CCOc1ccc2cc(C#N)c(SCC(=O)NC(C)CC)nc2c1 (stereo unspecified) | inconclusive: 49%
Cc1cc(=S)[nH]c(=S)[nH]1 | inconclusive: 73.5%
COc1ccccc1CNC(=O)CN1C(=O)NC(c2ccccc2)(c2ccccc2)C1=O | inconclusive: 61.5%
CCOc1ccc(Nc2nc(NCC3CCCO3)c3ccccc3n2)cc1 (stereo unspecified) | active: 66.3%
Cn1c(SCC(=O)c2ccc(F)cc2)ncc(C(=O)Nc2ccccc2)c1=O | active: 57.8%
O=C(c1nnsc1S(=O)(=O)c1ccc(Cl)cc1)N1CCOCC1 | inactive: -2.6%
COC(=O)c1ccccc1OC(=O)c1ccc(Br)o1 | inconclusive: 74.3%
CCN(CC)C(=O)c1sc2nc(N3CCOCC3)c3c(c2c1N)CCCC3 | inconclusive: 80.4%
COC(=O)c1ccc(CNC(=O)COC(=O)c2cc(Cl)ccc2O)cc1 | active: 51.8%
CC(=O)c1c(C)[nH]c(=S)c(C#N)c1-c1ccc(Cl)cc1 | inconclusive: 46%
Cc1ccc2cc(C(c3nnnn3Cc3ccccc3)N3CCc4ccccc43)c(=O)[nH]c2c1C (stereo unspecified) | inconclusive: 47.6%
COc1cccc2sc3cc(C#CC4(O)CCCCC4)ccc3c(=O)c12 | inconclusive: 64.9%
CC(=O)NC(c1cccs1)c1cc(Cl)c2ccccc2c1O (stereo unspecified) | active: 71.2%
COc1ccc2c(C)cc(SCc3c(C)noc3C)nc2c1 | inconclusive: 46%
CCCCn1c(N)c(N(CC(C)C)C(=O)c2ccc(S(=O)(=O)N3CCCCCC3)cc2)c(=O)[nH]c1=O | inconclusive: 87%
N#Cc1ccc(-c2ccc3c(c2)OCO3)nc1SCC(=O)OCc1ccccc1 | inconclusive: 55%

SMILES | inhibition
Oc1cc(Nc2ccncc2)cc2cccnc12 | active: 104%
Cc1cccc(-c2sc(Nc3ccccc3)n[n+]2-c2ccc(F)cc2)c1 | inactive: -2.8%
CC1CCN(c2ccc3nnc(CCC(=O)Nc4ccc(F)c(F)c4)n3n2)CC1 | inconclusive: 55.4%
CCCCCCCCCCCCCCCC[n+]1ccc(/C=N/O)cc1 | active: 91.3%
COc1cccc(-n2c(=S)[nH]c3c(oc4ccccc43)c2=O)c1 | inconclusive: 81.3%
COc1ccccc1-c1oc2ccccc2c1-c1ccc2cc[nH]c2c1 | inactive: 17.4%
CCOc1nc(-c2ccccc2)c2cc(C)ccc2n1 | inconclusive: 61.1%
COc1ccc(C2CC(=O)c3cnc(N4CCc5ccccc54)nc3C2)c(OC)c1 (stereo unspecified) | inconclusive: 46.5%
O=C(C1=C[C@H](c2ccc(Br)cc2)C[C@H](OCc2ccc(CO)cc2)O1)N1CCOCC1 | inactive: -7.3%
CNC[C@H](Cc1cccc2ccccc12)NC[C@H](CCSC)NCC1CCC(C(C)(C)C)CC1 (stereo partly specified) | active: 85.8%
Cn1ccc(=Nc2ccc(NC(=O)c3ccc(N=c4ccn(C)c5ccc([N+](=O)[O-])cc45)cc3)cc2)cc1 | inconclusive: 96.2%
COc1ccc(S(=O)(=O)N2CCN(CC(O)COc3ccc(CC#N)cc3)CC2)cc1OC (stereo unspecified) | inactive: 1.3%
Cc1ccc(C(=O)NCC#N)cc1 | inconclusive: 68.3%
Cc1n[nH]c(=O)nc1NCC1CCCO1 (stereo unspecified) | inconclusive: 70.5%
Brc1cc(Br)c2nc3c(cc2c1)CCC3 | inconclusive: 77.6%
Cn1c(=NC(=O)CCS(=O)(=O)c2ccccc2)sc2cc(F)ccc21 | inconclusive: 56%
C=CCn1c(SCC(=O)Nc2ccccc2-c2ccccc2)nc2cc(C(=O)O)ccc2c1=O | inactive: -7.3%
Cc1cc(SCC(=O)NC2CC2)nc2ccccc12 | inconclusive: 61.6%
CCc1ccccc1S(=O)(=O)Cc1ccc(C(=O)NC2CCCC2)o1 | inconclusive: 84.5%
CNc1oc(-c2ccc(F)cc2)nc1S(=O)(=O)c1ccccc1 | inconclusive: 70.8%
CCOC(=O)c1c(O)c(O)c(C(=O)OCC)n1-c1ccccc1 | inconclusive: 85.1%
O=C(Nc1ccc(C(=O)NCCCN2CCN(c3ccc(F)cc3)CC2)cc1)C1=CSCCO1 | active: 65.2%

SMILES | inhibition
Cc1ccc2nc(-c3cccnc3SCC(=O)N3c4ccccc4CC3C)[nH]c2c1 (stereo unspecified) | inactive: 5.4%
COc1cccc(CNc2ncnc3ccc(-c4c(C)noc4C)cc23)c1 | inconclusive: 63%
N#CC(=C1CCCC1)c1nc(-c2ccccc2)cs1 | inactive: -11%
CCOC(=O)c1c(C)nc(SC)c(C#N)c1-c1ccccc1 | inconclusive: 48.1%
CCOC(=O)c1ccc(-c2c(-c3ccccc3OC)sc3cc4c(cc23)OCO4)cc1F | inconclusive: 55.3%
CCc1ccc(NC(=O)CNC(=O)c2nn(-c3ccc(OC)cc3)c(=O)c3ccccc23)cc1 | inconclusive: 80.4%
O=C(c1ccccc1)C1CCN(c2ncccc2[N+](=O)[O-])CC1 | inconclusive: 84.2%
CCCn1c(N2CCN(C(=O)NCc3ccccc3)CC2)nc2ccccc21 | inactive: -2.5%
Cc1ccc(-n2nc3c(=S)[nH]nc(C)c3c2C)cc1 | inconclusive: 78.1%
O=C(CCC(=O)N1CCOc2ccc(Cl)cc21)NCCCN1CCC(Cc2ccccc2)CC1 | active: 92.2%
FC(F)(F)c1cc(CCN2CCNC[C@@H]2c2ccccc2)cc(C(F)(F)F)c1 | active: 65.9%
CCOC(=O)C1CCN(C(=O)c2ccc3nc(-c4ccc(OC)cc4)c(-c4ccc(OC)cc4)nc3c2)CC1 | inconclusive: 63.3%
COc1ccc(C(C)(C)C)cc1NC(=O)C1=CC=CN2CCS(=O)(=O)N=C12 | active: 50%
OC1(c2ccc(Cl)cc2)CCN(Cc2cn[nH]c2-c2ccccc2)CC1 | inconclusive: 88.2%
Oc1ccc(NC(=S)N=Nc2c(O)[nH]c3ccc(Br)cc23)cc1 | inconclusive: 77%
CCN(CC)c1c(-c2ccccc2)c2cc(C)ccc2[nH]c1=O | inconclusive: 65.7%
CCOC(=O)c1cnn(-c2nc3c(C)cccc3s2)c1C(F)(F)F | inconclusive: 58.6%
Cc1c(CCOC(=O)c2ccc([N+](=O)[O-])cc2)sc[n+]1CC(=O)c1ccccc1 | inactive: 12.8%
CC(=O)c1ccc(N2CCN(C(=O)Cn3c(=S)[nH]c4ncccc4c3=O)CC2)cc1 | inconclusive: 58%
COc1ccccc1Cn1c(=S)[nH]c2ccccc2c1=O | inconclusive: 84.1%
